According to the RNAGym collection of RNA variant scans (doi:10.7554/elife.90254):
Read counts are not given, so values of variants with three or more changes are uncertain.

B1: LINE1-mini (parent)
chain: GGCAGAGCUCAACACAGCGUGGCAAAGUGGCUGUGGCUAGACUGCC

Variants of: B1
Assay: self-cleavage, relative activity (ratio to wild type); higher = more cleavage; in vitro, sequencing; the parent is a self-cleaving ribozyme

Variant | self-cleavage
C13A A16C G17U C23G | 0.01
C13A A14G C18U G21U | 0.04
C13A G33U G36C | 0.01
C13A C31A G40C | 0.13
C13A A16U C18A G29C G44U | 0.01
C13A C18U G33A | 0.05
C13A G17A G44C | 0.03
C13A A24U G27C G44C | 0.08
C13G C18A C37U A39U | 0
C13A A39U C45G | 0.25
C13A G17A G30A U32C G40U | 0.03
C13G A24C C31U U38A | 0.01
C13A G27C G40C U43A | 0.04
C13A A24U A39C | 0.03
C13G A16G U28A | 0.02
C13G C15A A24U U28G G36A C37U C46A | 0.01
C13G C15U U38A | 0.2
C13A C18G G27U G33A C37A | 0.03
C13G C23G G40U | 0.12
C13A C23G C42U | 0.1
A12U U34C C37G C45G | 0.04
C13G A26C C37U C46A | 0.07
C13A G19C G29C C46A | 0.06
C13A A14C C37G A41C C42A | 0.01

Variant | self-cleavage
C13G C15G U20G A26C C42U G44U | 0.02
C13A C18U G44C | 0.07
C13A A25G C42U | 0.04
C13A C15A G40C | 0.02
C13G A16C G35U C46A | 0.65
C13A G21U G27U G33C | 0.02
C13G C15G U38A | 0.04
C13A A24G G27U | 0.04
C13A C31U C37U | 0.26
C13A U28G U38G | 0
C13G C15A G21A A24C A39C | 0.09
C13A C18A G19U A24U U28A | 0.04
C13A C15A C18U G21A | 0.08
C13A C18A G30U | 0.06
C13A G22C G40U C46U | 0
C13A U20A A25C G30U U32G | 0.01
C13A U28C G44C C45G | 0.05
C13G A24C G29C | 0.05
C13G A14U G19A G36A | 0.09
C13A C15A G29A C37A | 0.13
C13A G21U C37A U38G | 0.01
A12U U38A G44U | 0.04
C13A G21A C31A U38A | 0.02
C13A C23A U28C G29U | 0.01

Variant | self-cleavage
C13A C15U C46A | 0.05
C13A G21U C37U | 0.12
C13A A26G G35A C46G | 0.03
C13A G29C G33A | 0.05
C13A G21U G40U | 0.18
C13G C15U A26U | 0.05
C13A A16U C23G U43A | 0.14
C13A A16U G36A G44C | 0.05
C13A A24U G27U G30A U32A C42A | 0.01
C13A G35U C42U G44C | 0.05
C13G C23G A25U | 0.29
C13A A14G G17U A24C | 0.02
C13G C15G G17A | 0.03
C13G A14G G22A | 0.04
C13A C18U G36U A39G | 0.19
C13G C15U C23A G40U | 0.08
C13A C18U U32C G36U | 0.06
C13A C18G G29A | 0.03
C13G A16C C31A | 0.04
C13A G17A A39U U43G G44C | 0.08
C13A U28C G36U C46G | 0.03
C13A G22U C23G G44A | 0.13
C13A A39G G40U | 0.27
C13A G17C C31U U43A | 0.07

Variant | self-cleavage
C13G A14U C15A G17C | 0.05
C13A C23A A26U C37A | 0.02
C13A A24G G36C | 0.04
C13A A25G C45A | 0.01
C13A U28A G29U U34G A41U | 0.01
C13G A14C A16G G33C | 0.01
C13A A24U G35C C45U | 0.06
C13G A24C U28A C45G | 0.02
C13A G19U G33C | 0.06
C13A C15A C23A G27C | 0.17
A12U U34A G44U C45U C46A | 0.03
C13G A25C G27A G29A G36U | 0.1
C13A G21A A25G | 0.01
C13G C18U A39U G44U | 0.08
C13A G17C U20G C23U U28C G36A A41U | 0.07
C13A G33C A39G | 0.03
C13A A14C G29U G30U C42G | 0.03
C13A G17U A26U | 0.08
C13A C18A C23U G35U | 0.47
C13A U20A A24C G33U G35A | 0.04
C13A G27A U43C C45A | 0.02
C13A C15U C37G | 0.07
C13A G21U G35A | 0.06
C13G A14C G35U | 0

Variant | self-cleavage
C13G A16G C45G | 0.08
C13G C15U G17A U28G A39G | 0.02
C13A G21A G27U | 0.17
C13A C37G A39U G40U | 0.02
C13G C23U C42G | 0.06
C13A A26G U43C | 0.03
C13A G19C G29C C37G | 0.02
C13A A14C G22A C46U | 0.05
C13A C31A G33C G40C | 0.01
C13A G19U A41U C45G | 0.02
C13A C23A A24U A41U | 0.11
C13A C23A C46U | 0.22
C13G C15G G40A | 0.03
C13G C15G G40U | 0.02
C13A G17A G36C | 0.03
C13A G21U C46A | 0.02
C13A G21U G22A C23U G30U A41U U43A C46A | 0.04
C13A G19C G44A | 0.11
C13A U28A G35A A41G C46G | 0.15
C13G A14U G40A C42U | 0.01
C13A U20A G21C G29C U43A | 0.05
C13A A41U C46U | 0.1
C13A G19A A39G U43A | 0.11
C13A A14G G21C U28C | 0.78

Variant | self-cleavage
C13G A14G G21A U43A | 0.06
C13A U20A G44U | 0.03
C13A G22C C23A G27U | 0.09
C13A A14C G17C C37A | 0.07
C13G C15A U38C C45A | 0.01
C13A A16G A24U U32C | 0
C13A A24U G27C C45G | 0.12
C13A C18U U43G G44A | 0.1
C13A A25C G27C G35U | 0.03
C13A A14G U38G | 0.02
C13G C23U G36A C37A U38G | 0.01
C13A U20G C23A G29C C31U | 0.03
C13A G21A A26G G27A C31U | 0.09
C13A A14U A16U G17U G21C | 0.08
C13G C18G U32G | 0.03
C13A G33C C42U | 0.24
C13G C18G G19A C45U | 0.17
C13G A16G U34C | 0.02
C13G C31G C37A | 0.02
C13A G17U G30U C37U | 0.08
C13A C15A G22A G36C | 0.02
C13A G30A C31G U34A A39U G44A | 0
C13A G22U A24C C42U C46A | 0.02
C13A C15U U38C | 0.2

Variant | self-cleavage
C13A C15U G19U G30U C45A | 0.01
C13G A16C G33A U34C | 0.06
C13A G19U G22U | 0.11
C13A A16U G19A C23A | 0.08
C13A A16C G22A U34A | 0.09
C13G C18G G21U | 0.04
C13A G17U G36U | 0.07
C13A G21C C23A G29U C45A | 0.04
C13A G22U G29U | 0.11
C13A A16C G17A G21A C37U | 0.11
C13A A26U U28C G33C C42U | 0.03
C13A G19C C31A G36U G40C | 0.01
C13A G17U G35C A39U | 0.09
C13A U28G A39G | 0
C13A C23A G29U G44A | 0.05
C13A G30C G33U G35C | 0.54
C13A C23A G29A | 0.04
C13A C18U C37U | 0.1
C13A C15G G21C A39G G40C | 0.01
C13A A16U C18A C31U | 0.09
C13A C37G A41U | 0.03
C13A A24U G30U G36U A39C | 0.21
C13G A14C C18A G19U U43C | 0.01
